# Test results reported in article PMC4336329 (PLoS ONE, 2015).
# In all, about 310,000 compounds went through this assay and about 14,000 (4.5%) showed an effect of 50% or more. Effects have a minus sign here. The list shows a part of the results.
# Biological target: human ether-à-go-go-related gene (hERG) potassium channel (human, UniProt Q12809)
# Assay: primary screen, population patch clamp on CHO cells stably expressing hERG
# 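Note: peak tail current of the secondary pulse compared with the same well before compound.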
# human ether-à-go-go-related gene (hERG) potassium channel, sequence (Q12809 whole entry, looked up): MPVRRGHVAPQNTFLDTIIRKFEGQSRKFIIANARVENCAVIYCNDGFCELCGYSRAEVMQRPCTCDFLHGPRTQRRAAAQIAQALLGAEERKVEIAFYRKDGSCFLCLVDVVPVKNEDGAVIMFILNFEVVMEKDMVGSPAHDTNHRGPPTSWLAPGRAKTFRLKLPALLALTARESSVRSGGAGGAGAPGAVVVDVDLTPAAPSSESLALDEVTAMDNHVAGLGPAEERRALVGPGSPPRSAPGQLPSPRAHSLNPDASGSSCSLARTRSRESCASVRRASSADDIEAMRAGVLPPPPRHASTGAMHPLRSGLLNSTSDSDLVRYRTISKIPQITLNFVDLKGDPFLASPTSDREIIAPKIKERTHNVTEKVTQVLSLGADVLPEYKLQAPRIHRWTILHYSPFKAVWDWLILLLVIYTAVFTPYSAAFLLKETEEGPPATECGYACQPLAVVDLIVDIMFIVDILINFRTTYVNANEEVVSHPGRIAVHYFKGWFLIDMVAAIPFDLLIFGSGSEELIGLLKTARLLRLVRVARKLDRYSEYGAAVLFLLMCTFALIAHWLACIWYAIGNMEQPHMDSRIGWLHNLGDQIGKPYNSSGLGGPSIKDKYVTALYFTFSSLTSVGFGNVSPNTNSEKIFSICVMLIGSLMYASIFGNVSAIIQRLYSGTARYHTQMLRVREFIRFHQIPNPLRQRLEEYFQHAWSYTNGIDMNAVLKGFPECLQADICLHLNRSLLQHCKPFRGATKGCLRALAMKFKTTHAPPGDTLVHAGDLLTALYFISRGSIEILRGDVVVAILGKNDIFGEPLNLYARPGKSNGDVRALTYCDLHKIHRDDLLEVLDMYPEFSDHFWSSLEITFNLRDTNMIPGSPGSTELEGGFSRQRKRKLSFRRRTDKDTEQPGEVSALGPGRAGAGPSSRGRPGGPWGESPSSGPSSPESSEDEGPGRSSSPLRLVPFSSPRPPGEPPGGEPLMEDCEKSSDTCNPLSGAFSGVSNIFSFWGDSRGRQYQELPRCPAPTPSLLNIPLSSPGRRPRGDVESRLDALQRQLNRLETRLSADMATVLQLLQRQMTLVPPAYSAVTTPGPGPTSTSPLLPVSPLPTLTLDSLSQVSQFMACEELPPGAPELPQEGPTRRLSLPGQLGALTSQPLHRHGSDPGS
row,SMILES,"hERG current change (%, negative = inhibition) at 10uM [%]"
1,CCc1cc(C(=O)N=Nc2c(O)[nH]c3ccc([N+](=O)[O-])cc23)c2ccccc2n1,3.87
2,CN1CCOCCOCCN(C)C1=O,8.49
3,CSc1nc(C)cc(Oc2ccc(OCCOc3ccccc3)nn2)n1,-23.2
4,O=C(NCc1ccccc1)c1onc(CSc2ccncc2)c1C(=O)NCc1ccccc1,6.77
5,CN1CCN(CCCNC(=O)Nc2ccc([N+](=O)[O-])cc2)CC1,-7.46
6,Cc1cccnc1NC(=O)C1COc2ccccc2O1 (stereo not drawn),32.5
7,OCCC1CCCCN1CC(O)COCc1ccc(Cl)cc1 (stereo not drawn),-7.29
8,Cc1n[nH]c(C)c1S(=O)(=O)N1CCCC(C(=O)Nc2ccc(Br)cc2)C1 (stereo not drawn),15
9,CCCCn1c(N)c(N(CC(C)C)C(=O)CCNC(=O)c2ccccc2Cl)c(=O)[nH]c1=O,-2.37
10,Oc1ccc(C[C@H]2CNCCN2CCCCC2CCCCC2)cc1,-26.1
11,Cc1ccc(C)c(N(C(=O)c2csnn2)C(C(=O)NC2CCCCC2)c2ccncc2)c1 (stereo not drawn),10.8
12,COc1ccc(C2=NOC(C(=O)NCCCN3CCOCC3)C2)cc1 (stereo not drawn),11.3
13,COC(=O)c1c(C)noc1-c1snnc1C,19.5
14,COc1ccc(CN(C)Cc2cc(=O)oc3cc(C)c(C(C)C)cc23)cc1OC,8.72
15,O=C(/C=C/c1ccccc1)N/C(=C/c1ccccc1)C(=O)Nc1cccc(C(=O)O)c1,12.6
16,CCOC(=O)CSc1nc2c(c(=O)[nH]c(=O)n2C)n1C/C=C(/C)Cl,-43.7
17,COc1ccccc1OCC(=O)Nc1ccc(S(=O)(=O)N2CCOCC2)cc1,-6.44
18,COc1cccc(-c2nnc(NC(=O)c3cccs3)s2)c1,23
19,Cc1[nH]nc2c1C(Cc1ccccc1)C(C#N)=C(N)O2 (stereo not drawn),-5.54
20,O=C(NCCCCc1ccccc1)c1ccccc1Cl,-9.21
21,Cc1ccc(CN(C(=O)c2ccc([N+](=O)[O-])cc2)C2CCS(=O)(=O)C2)o1 (stereo not drawn),-38.8

row,SMILES,"hERG current change (%, negative = inhibition) at 10uM [%]"
1,CCCNc1c(NS(=O)(=O)c2ccc3c(c2)CCCC3)c(=O)oc2ccccc12,8.8
2,CCN(CC(=O)NCc1ccc(Cl)cc1)C(=O)c1ccc(S(=O)(=O)NCc2ccco2)cc1,-54.9
3,COCCNC(=S)N=Nc1c(O)[nH]c2ccc([N+](=O)[O-])cc12,-2.41
4,CCCCn1c(N)c(N(CC(C)C)C(=O)c2cccc(S(=O)(=O)N3CCCCCC3)c2)c(=O)[nH]c1=O,-0.0958
5,CC(C(=O)NCC1CCCO1)c1ccc([N+](=O)[O-])cc1 (stereo not drawn),-7.86
6,CSC[C@H](NC(=O)Cc1c(C)c2cc3c(C)c(C)oc3cc2oc1=O)C(=O)N[C@@H](Cc1ccccc1)C(=O)O,1.76
7,O=C(NCc1ccccc1)C1=C[C@@H](c2coc3ccccc3c2=O)C[C@@H](OCCCCO)O1,-83.1
8,COc1cccc(N2C(=O)NC(=O)/C(=C/c3ccc4c(c3)Cc3ccccc3-4)C2=O)c1,25
9,O=C(CSCc1ccccc1)Nc1ccc(F)cc1F,3.55
10,COP(=O)(OC)C(Nc1ccc(Cl)cc1)c1ccccc1 (stereo not drawn),6.08
11,COc1cc(C(=O)OCn2nnc3ccccc3c2=O)cc(OC)c1OC,4.44
12,CC(C)(C)c1ccc(OCCON2C(=O)CCC2=O)c(Cl)c1,-15.2
13,COc1ccccc1N=Nc1c(C)[nH]n(-c2ccccc2)c1=O,18
14,O=C(Nc1cccc(C(F)(F)F)c1)c1cccnc1NCCc1ccccc1,7.2
15,O=C(O)C[C@]1(C(=O)Nc2ccc(F)cc2)CC(/C=C/c2ccccc2)=NO1,10.4
16,COc1cc(/C=C2\N=C(C)OC2=O)cc(OC)c1OC,15.8
17,O=c1ccc(-c2ccc(S(=O)(=O)Nc3ccccc3Cl)o2)n[nH]1,9.79
18,CCCCC(O)(CCN1CCOCC1)c1ccc(Cl)cc1.Cl (stereo not drawn),-66.5
19,CC(C)(C)Sc1ccccc1S(=O)(=O)C(C)(C)C,-6.66
20,O=c1c2ccccc2nc(-c2cccs2)n1-c1cccc2ccccc12,5.68
21,Cc1cc(N(C)/N=C/c2ccccc2O)nc(-c2ccccc2O)n1,24.3

row,SMILES,"hERG current change (%, negative = inhibition) at 10uM [%]"
1,CC(C)(C)c1ccc(C(=O)N2CCNC(=O)C2CC(=O)Nc2ccc(F)cc2)cc1 (stereo not drawn),13.9
2,CC(C)C[C@H](NC(=O)c1nc[nH]c1C(=O)NC1CC[NH2+]CC1)C(=O)OCc1ccccc1.[Cl-],15.7
3,CSc1nc(C)cc(C)c1S(=O)(=O)c1ccccc1C,7.41
4,CN(C)c1ccc(P(=O)(Nc2ccc([N+](=O)[O-])cc2)N2CCOCC2)c(NC(=O)c2cccs2)c1 (stereo not drawn),16.9
5,CC(C)NC(=O)COC(=O)CNC(=O)c1cc(Cl)cc([N+](=O)[O-])c1,-0.0659
6,C/C(=N\NC(=O)C1(C)CC1(Br)Br)c1ccc(NC(=O)C2CCC2)cc1 (stereo not drawn),7.51
7,COc1ccc(N=Nc2c(N)n[nH]c2N)cc1,11.9
8,COC(=O)c1sc(N)nc1C(C)(C)C,3.77
9,CC(=O)c1sc2c(c1OC(=O)c1ccc(Cl)cc1Cl)c(=O)n(-c1ccccc1)c(=S)n2-c1ccccc1,19.1
10,Cn1c(Cn2c(=O)sc3ccccc32)nnc1SCC(=O)N1CCCCCC1,-3.94
11,C#CCOc1c(Br)cc(/C=N\NC(=O)CN2CCOCC2)cc1OCC,-5.33
12,C[C@H](NC(=O)c1nc[nH]c1C(=O)N[C@H](C)c1ccccc1)C(=O)OC(C)(C)C,-4.07
13,COc1ccc(-c2nn(-c3ccccc3)cc2C(=O)N(C)C)cc1,-7.44
14,O=C(CNC(=O)c1ccco1)N/N=C/c1ccc(O)c([N+](=O)[O-])c1,29.1
15,CCN(CC)S(=O)(=O)c1cccc(C(=O)NC(Cc2c[nH]c3ccccc23)c2nnc3n2CCC3)c1 (stereo not drawn),7.8
16,COc1ccc(CNC(=O)CN(Cc2ccccc2OC)C(=O)c2csnn2)cc1,-29
17,N#CC1=C(O)CCCn2c1nc1ccccc1c2=O,11.7
18,CC(C)(C)OC(=O)N1CCC(c2cc(=O)n3[nH]cc(C(=O)NC4CCCC4)c3n2)CC1,18.3
19,COC(=O)COc1ccc(S(=O)(=O)N2CCN(c3ccc(F)cc3)CC2)cc1,-25.5
20,COc1ccc(-c2cc3nc4n(c(=O)c3s2)CCCCC4)cc1,-5.46
21,CC1Nc2ccccc2C(=O)N1NC(=O)c1ccc(Br)cc1 (stereo not drawn),-9.66

row,SMILES,"hERG current change (%, negative = inhibition) at 10uM [%]"
1,O=C(CCNS(=O)(=O)c1ccc2[nH]c(=O)oc2c1)Nc1cccc(Br)c1,13
2,Cc1ccc(S(=O)(=O)N2CCN(C(=O)C3CCCO3)CC2)cc1C (stereo not drawn),15.6
3,O=C1CCCC(O)=C1Sc1ccccc1C(=O)O,9.53
4,COc1ccc(N(C(=O)c2snc(C(N)=O)c2N)C(C(=O)NC2CCCC2)c2cc(OC)ccc2OC)cc1 (stereo not drawn),-14.4
5,O=C(Cc1ccccc1)N1CCCC1c1ccccc1 (stereo not drawn),6.81
6,CC(NC(=O)c1ccc2nc[nH]c2c1)c1ccccc1 (stereo not drawn),13.4
7,CCOc1ccccc1N(C(=O)CNC(=O)c1ccco1)C(C(=O)NC1CCCC1)c1cccnc1 (stereo not drawn),-8.42
8,O=C(c1cc(S(=O)(=O)N2CCCCC2)ccc1F)N1CCC2(CC1)OCCO2,-19
9,COc1ccc(C(=O)Nc2ccccc2C(=O)Nc2ccccc2C(=O)O)cc1,5.66
10,Cc1noc(C)c1COC(=O)/C=C/c1ccccc1Cl,17.7
11,Cc1ccc2c(c1)C1CN(C)CCC1N2C(=O)CCCN1C(=O)c2cccc3cccc(c23)C1=O (stereo not drawn),-57.4
12,CCN1CCN(c2ccc(S(=O)(=O)N3CCOCC3)cc2NC(=O)C(C)Oc2cccc(Cl)c2)CC1 (stereo not drawn),-70.8
13,Cc1nc(SCc2ccc(Cl)cc2)ncc1C(=O)O,2.06
14,C#CCOCCOCCOCCNc1nc(N2CCN(C(=O)C([C@@H](C)CC)n3cc(C(N)COC(=O)C(F)(F)F)nn3)CC2)nc(N2CCN(C(=O)[C@H](Cc3ccc(O)cc3)n3cc(C(N)[C@H](C)CC)nn3)CC2)n1.Cl (stereo partly drawn),25.6
15,O=C(O)Cn1c2c(c3ccccc31)CSc1ccc(Cl)cc1-2,23.3
16,O=c1c(-c2n[nH]c(=S)o2)cccn1Cc1ccccc1,21.2
17,O=C(O)c1ccc2c(c1)C(=O)N(c1cccc(C(=O)/C=C/c3ccccc3)c1)C2=O,25.9
18,CCOC(=O)C1CCN(S(=O)(=O)c2ccc(-c3cc(C(F)(F)F)n(C)n3)s2)CC1,-22.1
19,COc1ccc(CCNS(=O)(=O)c2ccc(C(=O)NCc3ccco3)cc2)cc1OC,-1.93
20,CCCOc1ncnc2c1[nH]c1ccc(OC)cc12,8.11
21,COc1ccc(/C=N/NC(=O)c2c(C)nc3ccc(Cl)cn23)cc1OC,4.79
